Patent publication US10294218B2 (VIROSTATICS SRL, priority 2012, dated 2019)

Tested on: laboratory strain of HIV-1
Experiment: Antiviral activity against HIV (AV), p24 in infected activated primary T cells
Format: cell-based
Conditions: Human immunodeficiency virus 1, T-cell, read-out: AV50 (Inhibitory concentration 50% for antiviral activity)
Protocol: Activated primary T cells are infected with a laboratory strain of HIV-1, then cultured and exposed to different concentrations of the test compounds. HIV replication is analysed by measuring the viral protein p24 and expressed as percentage of untreated control. Inhibition of viral replication (AV) is then calculated (AV=100 minus the % p24 compared to control, AV of control=0%). Inhibitory concentration 50% for antiviral activity (AV50) is calculated.
In Tables 2, 3 and 4, ND means Not Determined.

Work on `CC[C@H](CO)Nc1nc(NCc2ccccc2)c2ncn(C(C)C)c2n1` [Roscovitine, reference compound] yielded an IC50 of 9 µM.
